Measured values as given in the supplement of paper PMC3334620.
Whole data set: some 33,000 sequences, median “E-score (-0.5 to 0.5)” near -0.012, cut for the highest 2% near 0.27. The list shows a part of the results.

target: T1, Vhr1 (UniProt P40522); assay: PBM E-score (8-mer binding enrichment) (E-score (-0.5 to 0.5)); higher = stronger / more preferred TF binding; most listed sequences are background and not binding sites; settings: protein concentration: 200 nM; construct: GST-full length
T1 sequence: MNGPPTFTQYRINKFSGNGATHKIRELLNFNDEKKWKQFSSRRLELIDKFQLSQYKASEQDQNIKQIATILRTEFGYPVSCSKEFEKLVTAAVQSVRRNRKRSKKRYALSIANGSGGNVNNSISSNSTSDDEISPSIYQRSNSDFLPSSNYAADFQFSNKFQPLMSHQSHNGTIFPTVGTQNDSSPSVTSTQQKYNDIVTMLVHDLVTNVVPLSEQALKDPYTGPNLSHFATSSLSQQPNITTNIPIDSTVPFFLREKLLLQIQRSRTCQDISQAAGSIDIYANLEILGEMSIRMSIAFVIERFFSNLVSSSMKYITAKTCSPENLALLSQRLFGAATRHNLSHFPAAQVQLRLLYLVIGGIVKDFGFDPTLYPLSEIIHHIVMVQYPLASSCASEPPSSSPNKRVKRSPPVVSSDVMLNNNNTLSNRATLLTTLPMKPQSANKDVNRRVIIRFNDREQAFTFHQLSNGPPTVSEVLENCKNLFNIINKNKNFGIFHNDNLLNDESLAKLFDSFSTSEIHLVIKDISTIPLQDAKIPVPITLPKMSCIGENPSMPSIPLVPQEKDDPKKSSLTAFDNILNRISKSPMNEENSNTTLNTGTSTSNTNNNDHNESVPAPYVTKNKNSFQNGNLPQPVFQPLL
Summary of the method: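 For each ungapped eight-base word taken together with its reverse complement, the Universal PBM Analysis Suite assigned an E-score. Binding data came from GST-tagged yeast transcription factors, applied at about 100-200 nM, on universal all-10-mer Agilent arrays made double-stranded by primer extension. Fluorescent anti-GST marked bound protein, and scans were normalised with masliner.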

Sequence	PBM E-score
CCGGTAGC	-0.00183
CTCAGTTA	-0.0388
CGAAGAAC	0.0807
AGTCTCTA	0.0197
AATTAGTA	0.146
GTGCGAGA	0.138
CGGTCGAG	-0.00746
CTCTCTCC	-0.0621
TGATGAAA	-0.112
GCAGGAAA	-0.0422
ACACCTCG	-0.0149
GAGGACGA	0.104
ATTGCACG	0.159
CTCCCTGC	-0.0434
ATAAGCAA	-0.0687
TGAGTACA	0.245
AAGGCACT	-0.122
TGAGACAA	-0.141
ATGCGGTG	0.119
CCTTGAAA	-0.246
GAACCATA	0.215
CTCATTAA	-0.0654
TCATTGGA	0.0126
CCCTATGA	0.00492
CCATTGCG	-0.0348

Sequence	PBM E-score
AGGGGTCG	-0.0826
CTGCTGAA	-0.0748
CTGTCGTC	-0.0585
GACCAGCC	0.0698
AGCAGCAC	-0.0532
TACAACTA	0.115
ATGAAACA	-0.0183
AGAGTAAG	-0.0559
CCGTGCAA	0.028
GGATGACC	0.0126
AACACTAT	0.136
AGTGTCAC	0.175
GCTTTATA	-0.261
GCAATAAC	0.0283
GACCGACA	0.00884
ATAGTATA	0.236
AATAGGAC	-0.0932
AATCGTAC	0.181
CAGTCAGC	0.232
CTTCAAAA	-0.234
AAAATGGA	0.0297
ACTCAATA	0.257
GAATCGAA	0.129
CATGTACG	0.123
ACGTGACA	-0.197

Sequence	PBM E-score
ACTGGACA	0.0475
GACCGAGC	0.0283
ACTACTCT	0.218
ACACCGAA	0.149
AGCGTCTA	-0.208
GTCCGTCA	-0.00519
AGAAACCT	-0.119
CAGCGTTC	-0.0437
AATGTATA	0.0845
GCATGGAA	0.0657
CAATCTCC	0.0739
AACCCGAC	-0.0332
AAGTGACT	0.226
CCTGGTGA	0.204
ACAGCAGT	0.095
AAACTCAA	0.017
CGAAGCGA	-0.0701
ATGTTTCC	0.0559
CGTGGGTC	0.236
AGAGGGAC	-0.219
GCCAGAGC	-0.25
GGCGCAAA	0.224
AGCCCAAA	0.197
CCCGCCAA	0.126
CGGGCGGC	0.0949

Sequence	PBM E-score
CTAGATTC	-0.168
CTAACTCA	-0.0545
ATCGAACA	-0.1
CGGATGGC	-0.0241
ACATTTTA	-0.133
GCGTTCGA	-0.0474
GCGCGGAC	0.0481
GTAATTTA	-0.0559
CCCTGGTC	-0.147
CCCAATGC	-0.144
ACCTGAAT	0.111
ACCAAAGG	-0.197
CGTTTTAA	-0.154
AGACGGAA	-0.215
ACGAATTA	-0.171
TCCCTAAA	-0.19
GAGTATAA	0.127
AAAGTGAA	-0.114
ATTCGGGC	-0.13
CTACTCAC	0.258
ACTCCACA	0.277
AACGGTTG	0.038
ATACTGGC	0.149
GAATTCTC	-0.0734
AGAGCCCA	0.00195

Sequence	PBM E-score
GATCCACC	0.176
AACGTGGT	-0.0115
GGCTGGTA	0.0349
CCATCGGG	0.0113
AGGTGCAG	-0.0428
AGTTGTGC	0.0078
CCGATTCC	0.00015
AGTCTATG	-0.0772
ATCAAGCA	-0.0191
TATGACGA	-0.0139
CTGCGGTC	-0.0533
CCAGTATA	-0.0295
CCTTAAAA	-0.253
ATCCATAG	-0.015
GAAAGCCC	0.0103
ATGAAGAA	0.0348
GCTCATAC	-0.135
AAAAGACG	-0.138
ACAAGTTA	0.019
ACGTCTGC	-0.2
GAGTCGGA	0.416
GGTGCAAC	-0.183
AGGACGCG	-0.226
CACGACCG	-0.188
AGCTCGCG	0.0952

Sequence	PBM E-score
ACGCCGAG	0.148
CGGTTCGA	0.189
AGAGCCGG	-0.186
TAAGGAAA	-0.288
ATTGTTAC	0.132
CAGTAGAG	-0.0187
CTGGCAAG	-0.21
AGCTTATG	-0.0276
ATTATCTC	-0.0454
GCGACCTA	0.0909
AGGACAAC	-0.0656
CCTAAGCG	-0.249
GCTGGTGA	0.181
GCAATACC	-0.00798
GGAAAGAC	-0.189
AGTCCAAG	-0.086
TCTATTAA	-0.0243
ATAAAAGG	-0.166
GAAATTTA	-0.157
TAGCAGCA	-0.0178
CCGACGCG	0.133
ACATGCTC	-0.0232
ATATAAGC	0.0517
TAATGGGA	-0.0763
CCTCCAAC	-0.034

Sequence	PBM E-score
ACGATATA	-0.0384
CACAGAAG	0.0662
TCATCCGA	0.167
CACGAAAC	0.162
GGCAAAAC	-0.172
CCGTGCCA	-0.15
GACTTATA	0.145
GCATTGTA	-0.0897
ATCTCGGA	0.0433
AGTGTCGA	0.0179
CAATTGTC	0.0541
ACACTACG	0.00082
ACGTGGCA	-0.147
CCGCCTCG	0.147
ACCCACGG	0.038
AGGTTGTA	0.0142
CGGGCTTC	0.048
ACAGGAAC	-0.107
TTCATAAA	0.0491
GGCGACGA	-0.103
AAATGCGA	-0.00728
CAACAGTG	0.105
ACACCCCA	-0.026
CGATTGAG	0.142
ACTATGAG	0.181

Sequence	PBM E-score
GAATTATA	-0.14
CTACTACA	0.119
ACGACTAC	0.209
GCTGTGAC	0.23
TCTGTTCA	0.151
CTATAGGA	-0.117
ATCCTCCA	-0.186
CGACGACA	-0.0337
AGGAGTCA	0.479
CGTTCGAG	-0.0846
ACCACGGC	0.0744
GGAAGAAC	0.0668
AATGTCGA	-0.0216
AACAACAG	-0.0774
CAAGGACA	-0.105
ATATCTTG	0.147
ACTATAAA	-0.0123
GGGCACTA	-0.214
AATCGACG	-0.189
AATCTCGT	-0.0585
CCTCACAA	0.115
TAAAAATA	0.0139
ATGAAGTA	-0.0612
AGTTCAGC	-0.0754
CGATTGGA	0.0449

Sequence	PBM E-score
GTCGTCAA	0.00192
GAATATAC	0.101
GTGGTAAC	-0.0602
AGCGCTTG	-0.0808
CGTCAAAA	-0.0988
ATATGGAA	0.178
CTGGTAGC	0.0951
CATAGTCG	0.238
CGTATTGA	0.101
AAGAATGC	-0.16
ACCCTCCG	-0.0102
ACCGGACG	0.283
AACAGTGC	0.0528
GAGACAAA	-0.214
CTTAATAA	-0.126
CACGAGTG	-0.0364
GAAATAAC	0.088
GGCGGTGA	0.184
ACCTTTAC	-0.0489
CGCGCCCA	0.0957
TAACTTAA	-0.0326
TATCAACA	0.172
ACGGCTAA	0.0235
GCAGTCGA	-0.0468
AGAGTGTC	0.143

Sequence	PBM E-score
ATATGCAT	0.0389
CAGGTCCC	-0.115
AGCACATG	0.251
GTATAGTA	0.179
CTCAAAGA	-0.331
ACAGAAAG	0.0139
GGGGCCAC	-0.101
GCCGGCAC	0.133
GGATGCAC	-0.144
AGTTGGTC	0.0881
ATTCGAAA	-0.0973
CAAGGAGA	-0.227
AAAACGAT	0.0301
CCGAACCG	0.0169
AGCGACAT	-0.0124
ATTATACA	0.00881
ACGCTCGG	0.0862
AACGCCCT	-0.227
CGGAGGAG	-0.125
CAACAGCG	-0.151
CAAATCGC	-0.178
GAGGGACC	-0.221
CTTAAGTC	-0.188
ATCTAAGA	-0.0227
ACGTAACA	0.0288

Sequence	PBM E-score
GGACCGAA	-0.0967
AAGGGAAC	-0.24
ACGGCCGT	-0.0304
CTTGCGGA	-0.142
ATGTGTGC	0.12
CATAACGA	0.0162
TAGTGCAA	-0.0998
CGCAATAA	0.0361
ACATATAA	0.0819
GTTAGCCA	0.0686
AACTACGT	0.0216
ATTACAGG	0.126
ATGACAGA	-0.0366
GTGCAAGA	-0.11
ACTCACAT	0.286
ATTATTCC	0.114
ACCGTTCA	-0.0238
ACGCAGAC	0.124
ATGGGTGG	0.242
ATGTGACG	-0.152
GAAAGTGC	-0.34
CTTTAAGA	0.0444
GAGCGACA	0.0659
GCTGAGCA	0.149
GCCCGCCC	0.137

Sequence	PBM E-score
GTTAACCA	0.217
CACAGTAA	0.198
CGGTATGC	-0.197
AGACACAG	0.0391
CACCACGA	0.187
ACGGCATG	-0.124
CAGTATGA	0.187
AAAATAAT	0.0747
AGTCCGGA	0.0589
AGTAGCGA	-0.0162
CCAATAAA	0.0312
GACCTGTA	-0.159
CTGGTTGA	-0.0118
GGAAGCTA	-0.0458
GTAGCTGA	0.0569
CGAAGGTA	-0.138
GCACAGAC	0.0685
ACATTTGG	-0.0663
ATAAAGGA	-0.163
AAAAGAAC	-0.0263
CTCGATAA	0.0897
CCCCGTCG	0.119
AGACACAT	0.0642
CACCCGGC	-0.0627
GTCCGGAC	0.273

Sequence	PBM E-score
CTCGCCAG	-0.0364
GTTCCAAC	0.0451
ACTCGCTG	0.0751
ACCTCAGG	-0.0862
ACCAATCG	0.0254
AGAATGAC	0.0751
CAGAGGCG	-0.162
AAGTGAAT	0.103
CAGTCTTC	0.0148
TAGTTACA	0.0393
GCGGACAA	0.185
AAGAGTTG	-0.154
AGTATGCA	0.203
CACTCGAA	-0.0827
CTCTACCA	-0.0404
AGTAGTGA	0.106
AGAGGGAT	-0.237
AGGGAGGG	0.187
GGCTATCA	-0.0805
CTCTCGAA	-0.142
GTGAACTA	-0.229
CGGAAGAG	-0.151
GGATATGA	0.289
AAAAATAC	-0.0592
ACAAACTC	0.0515

Sequence	PBM E-score
ACCTACGG	-0.174
CGTATACG	0.107
AACTAGAC	0.0785
AGCTCGAG	-0.0247
GAATTTCC	-0.0327
ATCAGGCC	-0.0546
GAGCGCAC	-0.232
GTCATATA	0.0663
AAGTCGGA	-0.0236
AATCAGAT	0.0903
TGCCGCCA	-0.0689
GAAGGAAC	-0.159
GTGAGAGA	-0.13
ACGTGACC	-0.057
ACCCTGAG	0.0716
GACGCACA	0.171
ATAACTAG	0.199
CTATGATC	0.112
ACACCTCA	-0.0388
